We go through 58 compounds from PubChem BioAssay AID1508624 (National Center for Advancing Translational Sciences (NCATS), 2021).

Out of some 48,000 compounds screened, about 120 (0.25%) were called active. About 4% were inconclusive and are not listed. Calls come from the whole dose curve; as a rule, active = well fitted activation curve with a large enough effect; inconclusive = small, poorly fitted or top-dose-only effect, or another doubt; inactive = no such curve, though single readings can be large or run the other way. The list shows a part of the results.

The assay can be described thus: Primary qHTS for Identification of Small Molecule Activators of Huntingtin-Antisense Promoter Activity. Note: nearly all actives have a fitted effect of over 55% in size. Particulars: HEK293 HTT-AS promoter firefly luciferase reporter, 24 h; series mostly up to 57.5 µM; activity change, positive = activation: at the top concentration. Summed up: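 HEK293 luciferase promoter-reporter cells (2,500/well) plated 24 h, then compounds added at up to 57.5 uM final for 24 h at 37 °C. Firefly luminescence by Dual-Glo, normalized to vehicle (0%) and zero RLU (-100%).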
On to `COc1ccc(-c2nc3c4ccccc4n(CC(=O)N4CCN(c5ccccc5F)CC4)c(=O)n3n2)cc1`, for which the “activity change, positive = activation” value is inactive: -0.763%.
The result for `CCCCN(CC)CCNC(=O)c1nn(C)c2c1CS(=O)(=O)c1ccccc1-2` reads inactive: 7.73%; that for `CCc1ccc(NC(=O)CCCc2nnc3n(C(C)CC)c(=O)c4sccc4n23)cc1` (stereo not drawn), inactive: -5.48%.
In the case of `COc1cc2c(cc1OC)C(COc1ccccc1OC)N(C(=O)c1ccc(S(=O)(=O)N(C)C)cc1)CC2` (stereo not drawn), the “activity change, positive = activation” value was inactive: -7.06%.
The result for `Cc1ccc(Cl)cc1N1CCN(C(=O)COc2cc(=O)n(C)c3ccccc23)CC1` reads inactive: -36.8%; that for `COc1ccc(Nc2nc3c(S(=O)(=O)c4ccc(C)cc4)nnn3c3ccsc23)cc1Cl`, inactive: -19.6%.
As to `Cc1ccc(/C=C/c2onc(C)c2S(=O)(=O)N2CCC(C(=O)N3CCN(c4cc(C)ccc4C)CC3)CC2)cc1`, the “activity change, positive = activation” value was inactive: -29.8%.
`O=C(NOCC(O)CO)c1cc(Br)c(F)c(F)c1Nc1ccc(I)cc1F` (stereo not drawn): the “activity change, positive = activation” value is inactive: -26.2%.
The result for `CC(=O)N1CCc2c(sc3c2c(=O)n(Cc2ccccc2)c(=O)n3Cc2ccccc2Cl)C1` reads inactive: -47.2%; that for `CCCCN(CC)C(=O)CSc1nc2ccccc2c(=O)n1Cc1ccco1`, inactive: -32.4%; that for `COc1cc(-c2nc(-c3ccccc3)c(-c3ccc(Br)cc3)[nH]2)cc(OC)c1O`, inactive: -14%.
The result for `COc1ccc(NC(=O)C2CCN(c3ccc(Sc4ccc(C)cc4)nn3)CC2)cc1` reads inactive: -13.7%.
As for `COC(=O)c1cc2sc(Cl)cc2n1Cc1nc(-c2ccccc2C)oc1C`, the “activity change, positive = activation” value is inactive: 7.15%.
As for `CC1CN(C(=O)N2CCC(C(=O)NCc3cccs3)CC2)c2ccccc2O1` (stereo not drawn), the “activity change, positive = activation” value is inactive: -7.19%.
Consider `CCC1CCCCN1CCCNC(=O)c1c(O)nc2cc(C)ccn2c1=O` (stereo not drawn), for which the “activity change, positive = activation” value is inactive: -7.78%.
For `COc1cccc(CNC(=O)Cn2c(=O)nc(-c3ccccc3F)c3cc(Cl)ccc32)c1` the value was inactive: 4.49%.
In the case of `COc1ccc(Nc2oc(/C=C/c3cc(OC)c(OC)c(OC)c3)nc2C#N)cc1`, the “activity change, positive = activation” value was inactive: -15.6%.
For `CC1CCN(S(=O)(=O)c2ccc3c(c2)N(CC(=O)NC(C)(C)C)C(=O)CS3)CC1` the value was inactive: -1.29%.
The result for `Cc1ccccc1C(=O)Nc1cccc(C(=O)OCc2cc(=O)n3c(C)csc3n2)c1` reads inactive: -22.3%.
The result for `COc1ccc(CNC(=O)c2ccc(NC(=O)N3CCSc4ncccc43)cc2)c(OC)c1` reads inactive: -15.9%; that for `CCOc1ccc2oc(=O)cc(CN3CCN(C(=O)c4cccc(Cl)c4)CC3)c2c1`, inactive: -15.7%.
As for `Cc1ccc(C)c(Nc2nn3c(=O)c4ccc(C(=O)N(C)Cc5ccccc5)cc4nc3s2)c1`, the “activity change, positive = activation” value was inactive: -22.7%.
On to `Clc1ccc2ncc(-c3cccc(NC4CNC4)n3)n2c1`, for which the “activity change, positive = activation” value is inactive: -6.06%.
The result for `COC(=O)c1ccccc1NC(=O)c1sc2nc(C)cc(C)c2c1NC(=O)c1ccccc1Cl` reads inactive: -21.1%; that for `Cc1cc(/C=C(\C#N)C(=O)Nc2ccccc2)c(C)n1-c1ccc(F)cc1`, inactive: -5.07%.
Turning to `CCOC(=O)NNc1ccc(N(CC)CC(C)O)nn1` (stereo not drawn), the “activity change, positive = activation” value is inactive: -2.09%.
For the compound `COc1ccc2c(CNCc3cccs3)c(C(=O)O)n(Cc3cccc(F)c3)c2c1`, the “activity change, positive = activation” value is inactive: -23.6%.
The result for `CC(CNC(=O)c1ccc2nc(CCc3ccccc3)oc2c1)c1ccccc1` (stereo not drawn) reads inactive: -10.2%.
For `COc1ccc(NC(=O)c2ncoc2-c2ccco2)cc1Cl` the value was inactive: -17%.
The result for `CCOC(=O)c1cccc(NC(=O)C2CCN(S(=O)(=O)c3c(C)noc3/C=C/c3ccc(C)cc3)CC2)c1` reads inactive: -40.6%.
Take `COc1cc2nc(-c3cc(F)ccc3O)nc(N[C@@H]3CNC[C@@H]3C(C)(C)O)c2cc1OC`: the “activity change, positive = activation” value is inactive: 4.67%.
The result for `COc1cc(NC(=O)c2nc(-c3ccc(Cl)cc3)n3c2CCCCC3)cc(OC)c1OC` reads inactive: 10.1% [at 11.5 µM, percent change from vehicle, -100% = no light]; that for `O=C(Cc1ccccc1)Nc1sc2c(c1C(=O)Nc1ccccc1Cl)CCCC2`, inactive: -14.6%; that for `COc1ccc(CNC(=O)c2cc(C3CC3)nc3c2c(C)nn3-c2cccc(Cl)c2C)cc1`, inactive: -5.77%.
For `Cc1cccc(C(=O)Nc2ccc3nc(SCC(=O)N4CCc5ccccc54)sc3c2)c1` the value was inactive: -7.51%; for `CCn1c(=O)n(-c2ccc3c(c2)OCO3)c2nc(-c3cc(OC)ccc3OC)nc(C(N)=O)c21`, inactive: -5.19%.
The result for `COc1ccc(CNC(=O)Cn2ccc3cc(S(=O)(=O)N4CCCC4)ccc32)c(OC)c1` reads inactive: -18.3%; that for `Cc1ccc(CN2CCc3nc(N4CCN(c5ccccc5F)CC4)ncc3C2)s1`, inactive: -33%; that for `Cc1ccc2oc(=O)c3cc(C(=O)NCc4ccc(Cl)cc4)sc3c2c1`, inactive: -2.6%.
With `Cc1ccc(NC(=O)C2CCCN2S(=O)(=O)c2cccc3nsnc23)c(Br)c1` (stereo not drawn), the “activity change, positive = activation” value is inactive: -23.1%.
The result for `COc1ccc(CNC(=O)c2ccc(NC(=O)N3CCCCc4ccccc43)cc2)c(OC)c1` reads inactive: -8.21%; that for `Cc1cc(SCC(=O)NCc2ccccc2Cl)nc(=O)[nH]1`, inactive: 8.19%; that for `Cc1cccc(-c2nc(C)c(CCNC(=O)C(=O)Nc3c(C)cc(C)cc3C)s2)c1`, inactive: -11.2%.
Turning to `COc1ccc(-c2csc3nc(-c4ccc(F)cc4)oc(=O)c23)cc1OC`, the “activity change, positive = activation” value is inactive: -16.3%.
The result for `C#CCC(Cc1cnc2nc(N)nc(N)c2n1)c1ccc(C(=O)N[C@@H](CCC(=O)O)C(=O)O)cc1` (stereo partly drawn) reads inactive: 18.7%; that for `Cc1cccc(C)c1NC(=O)CCS(=O)(=O)c1ccc2c(c1)n(C)c(=O)c(=O)n2C`, inactive: -22.2%; that for `Cc1ccc(-c2noc(CSc3nnc(C)n3-c3ccc(F)cc3)n2)cc1`, inactive: -24.1%.
The result for `CCN(CC)C(=O)Cn1c(=O)n(CCCCCC(=O)Nc2ccccc2)c(=O)c2sccc21` reads inactive: -0.806%.
The result for `NC(=O)C(=O)N/N=C/c1ccc([N+](=O)[O-])o1` reads inactive: -0.352%.
`COC(=O)c1ccccc1NC(=O)Cn1c(=O)cc(-c2ccccc2)c2c(C)nn(C)c21`: the “activity change, positive = activation” value is inactive: -7.26%.
The result for `CCOC(=O)c1sc2ncn(CC(=O)Nc3cc(C)cc(C)c3)c(=O)c2c1C` reads inactive: -9.57%; that for `COc1ccc(N2CCN(C(=O)CCc3nnc4n(C)c(=O)c5sccc5n34)CC2)cc1`, inactive: -8.41%; that for `COc1c(N2CCNC(C)C2)c(F)cc2c(=O)c(C(=O)O)cn(C3CC3)c12` (stereo not drawn), “inactive”.
The result for `COc1ccc(-n2c(=O)c3ccc(C(=O)NCc4ccc(C)cc4)cc3n(Cc3ccc(F)cc3Cl)c2=O)cc1` reads inactive: -12.2%.
For `CC1(C)N=C(c2ccc(F)cc2)C(=O)N1CC(=O)Nc1ccccc1Cl` the value was inactive: -6.8%.
Regarding `Cc1ccc(Cn2c3ccccc3c3cnn(CC(=O)N4CCCCCC4)c(=O)c32)cc1`, the “activity change, positive = activation” value was inactive: -18.2%.
On to `Cc1ccc(CN2C(=O)CC(c3ccc(Cl)cc3)c3c(C)nn(-c4nc(C)cc(C)n4)c32)cc1` (stereo not drawn), for which the “activity change, positive = activation” value is inactive: -37.6%.
Turning to `COc1ccc(-n2nc3c(c2NC(=O)C(=O)NCc2ccccc2)CSC3)cc1`, the “activity change, positive = activation” value was inactive: -19.1%.
